Reference: the supplement of paper PMC11417369
± gives the standard deviation of the averaged measurements. The list shows a part of the results.

Tested on: PfAP2-I AP2 domain 3 (GST-tagged)
Test: gcPBM binding intensity (ln(normalized median fluorescence intensity)); higher = stronger DNA binding
Summary of the method: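 Alexa488 anti-GST antibody, scanned at 488 nm, detected GST-tagged P. falciparum DNA-binding domains that had been expressed in E. coli and incubated for 1 h on an Agilent 4 × 180k array. The array carried primer-extended double-stranded 36-bp intergenic genomic probes and negative controls. Binding intensity is the highest Masliner-normalised natural-log median intensity across replicate spots of either orientation of each probe.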

Row | Sequence | gcPBM binding intensity (ln)
1 | AACGCACATATATTTATGTATATATATATATATATA [GTGCAC_negctrl_site478] | 9.21 ± 0.33
2 | GGGTTTTTTATTAATACATGCATGGAAACGCACTAT [TGCATGCA_site1000] | 10.2 ± 0.19
3 | AAATTCATAAAAATATTTTATAATTATATATAGAAT [TGCATGCA_negctrl_site343] | 7.51 ± 0.53
4 | ATATATATATAATTTGTACACACAAATATGCATATA [CACACA_site9136] | 9.18 ± 0.24
5 | AAGAAAAACAATGAGATAAAGAAGAGAAAATATGTC [TGCATGCA_negctrl_site415] | 8.13 ± 0.71
6 | TTTTCAAAAATATATACACACATGCATATTACGGTG [CACACA_site775] | 8.1 ± 0.75
7 | TACATGATAAGATGTAGTACATAAAAGAATAAATTA [XGTACX_site787] | 7.89 ± 0.34
8 | TATTCAATACTTAATGCACACAATAAAAAAAATATG [CACACA_site2467] | 10.9 ± 0.71
9 | ACGATAACATTTTTACGTACATATATTTTCACGGAG [XGTACX_site8764] | 7.99 ± 0.44
10 | ATATTGACAGGAAAAATTTTCTTTGAATCTTTAAAA [CACACA_negctrl_site1191] | 7.49 ± 0.57
11 | AAATGAAAAATAAGGAAAAAAAAAAAAAAAAAAAAA [CACACA_negctrl_site1715] | 8.12 ± 0.71
12 | TAAAATATTTCAAAGGTGCAATGATAATTTAAGACG [GTGCAC_site9609] | 10.6 ± 0.54
13 | TATGTTATATTGGACACACACAATAAACATTATGTA [CACACA_site1657] | 7.7 ± 0.32
14 | ATATATATATATAAGCGTACGCGTAGTTAAATTAAT [XGTACX_site7693] | 9.04 ± 0.37
15 | ACAAAAAAAATAAGCACACATATATATATATATATA [CACACA_site816] | 9.38 ± 0.36
16 | TTTTGTCGGAAATCGGATAAGAAGAAAAAAAATAAT [GTGCAC_negctrl_site594] | 8.02 ± 0.53
17 | TTCACTCCATATTATACACACACACTAATGAAAAAA [CACACA_site8991] | 8.21 ± 0.25
18 | AAAAAAAAAAAAAGTACACACATACATATAAATATA [CACACA_site8533] | 8.205 ± 0.049
19 | AAAAAAAAAAAATACGTGCACTATGATATATTATAT | 11.4 ± 0.36
20 | ATAATATTTATAAATTGTACTAATGTTCAATAATTA [XGTACX_site7284] | 7.51 ± 0.3
21 | AAATTTTATAAAGGAACACACATTTTTTTTTTTTCT [CACACA_site2368] | 7.48 ± 0.52
22 | GAAATAATTTTTATTTGTACACACATACATATATAT [XGTACX_site1862] | 8.07 ± 0.42
23 | TTATTCATTTCGAAAAGTACAAATTCTGTTTATTAT [XGTACX_site6892] | 7.68 ± 0.49
24 | CCACTAATTATGTGCACACAAATTAAAGGTCTACAA [CACACA_site4259] | 10.8 ± 0.23
